Assay results as given in PubChem BioAssay AID485281 (National Center for Advancing Translational Sciences (NCATS), 2010).
Among all 350,000 compounds or so, about 260 (0.074%) were called active. Inconclusive results, whose numbers are uncertain, are shown with a selection of clear calls. Calls come from the whole dose curve; as a rule, active = well fitted inhibition curve with a large enough effect; inconclusive = small, poorly fitted or top-dose-only effect; inactive = no such curve, though single readings can be large or run the other way. Potencies of inconclusive entries are doubtful fits and often do not repeat.

target: Ferritin light chain (Equus caballus) (UniProt P02791); assay: qHTS Assay for Identification of Novel General Anesthetics; conditions: apoferritin/1-aminoanthracene competitive binding, fluorescence; activity change, negative = displacement: at 77.5 µM (top of the series); note: nearly all actives have a fitted effect of over 20% in size
UniProt P02791, sequence (P02791 whole entry, looked up): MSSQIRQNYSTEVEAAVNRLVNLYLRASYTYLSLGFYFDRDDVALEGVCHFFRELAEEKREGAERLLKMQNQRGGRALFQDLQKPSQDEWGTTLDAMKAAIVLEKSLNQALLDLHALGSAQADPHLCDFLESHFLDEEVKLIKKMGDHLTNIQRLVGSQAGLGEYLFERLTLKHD
Procedure, shortened: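 10 uM apoferritin + 50% sat. 1-AMA, PBS; cpd 10 min RT; Ex380/Em535 endpoint; normalized to free probe vs complex; 4-param Hill fit; propofol titration as pos. ctrl.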
% is set by controls: 0 for no effect and ±100 for the full control effect; potency is the fitted concentration of half-maximal effect; tags give direction and shape of the fitted curve.

Potency, inconclusive:
O=C(NCc1ccccc1)Nc1cccn(Cc2cccc(F)c2)c1=O 7.94 µM [inhibitor, partial curve]
CC(C)CNC(=O)c1ccccc1SCC(=O)NC12CC3CC(CC(C3)C1)C2 35.5 µM [inhibitor, single point]
O=C(c1ccc([N+](=O)[O-])cc1)N1CCSC1c1ccc(Br)cc1 (stereo not given) 20 µM [inhibitor, partial curve]
Cc1cccc(C(=O)NC(=S)Nc2ccc(S(=O)(=O)N3CCCCC3)cc2)c1 31.6 µM [inhibitor, partial curve]
CCCC1CC(C)(C(=O)CSc2n[nH]c(-c3ccccc3)n2)OC1=O (stereo not given) 31.6 µM [inhibitor, single point]
O=S(=O)(Nc1ccc(F)cc1)c1ccc(NC(=S)Nc2ccccc2)cc1 25.1 µM [inhibitor, partial curve]
CCOc1ccc(CCNC(=O)c2ccc3c(c2)NC(=O)C2CCCN32)cc1OCC (stereo not given) 50.1 µM [inhibitor, single point]
COc1ccc(-c2noc(-c3ccc(NCCc4ccccc4)c([N+](=O)[O-])c3)n2)cc1OC 28.2 µM [inhibitor, partial curve]
CCN(CC)S(=O)(=O)c1ccc2c(c1)nc(CCC(=O)Nc1ccc(N3CCOCC3)cc1)n2C 31.6 µM [inhibitor, single point]
N#CC1=C(N)NC(SCC(=O)c2ccccc2)=C(C#N)C12CCCC2 20 µM [inhibitor, partial curve]
CCOCc1cnc(C)nc1NCC(=O)c1c(C)n(C)c2ccc(OC)cc12 35.5 µM [inhibitor, partial curve]
Cc1cc(C)nc(NCc2ccc(Cl)cc2)n1 6.31 µM [inhibitor, full curve]
Cc1nn(-c2nc(-c3ccc(F)cc3)cc(C(F)(F)F)n2)c(C)c1Cl 7.94 µM [inhibitor, partial curve]
CCC(C)CC(C)CC(C)C(=O)/C=C(/O)C(C)CC(C)C/C=C/C(C)C(O)C(C)C(O)CC1CCC(C)(C)O1 (stereo not given) 15.8 µM [inhibitor, partial curve]
CCC(=O)Nc1cc(C(=O)OC(C(=O)c2ccc(C)c(C)c2)c2ccccc2)ccc1C (stereo not given) 10 µM [inhibitor, partial curve]
O=C(N=Nc1c(O)[nH]c2ccc([N+](=O)[O-])cc12)c1ccccc1[N+](=O)[O-] 50.1 µM [inhibitor, single point]
O=C(COC(=O)C1=COCCO1)NC1CCCCCCC1 11.2 µM [inhibitor, partial curve]
O=C(NCc1ccccc1Cl)c1csc2c1CCCCC2 8.91 µM [inhibitor, partial curve]
O=[N+]([O-])c1cccc2c(Cl)ccnc12 39.8 µM [inhibitor, single point]
C=CCn1cc(C(=O)NCc2ccc(Cl)cc2)c(=O)c2cc(S(=O)(=O)N(CC)CC)ccc21 11.2 µM [inhibitor, full curve, poor fit]
COc1ccc(C(=O)Nn2c(SCC(=O)NC3CCCC3)nc3ccccc3c2=O)cc1 20 µM [inhibitor, partial curve]
CCC(=O)OCC(=O)C1(OC(=O)CC)C(C)CC2C3CCC4=CC(=O)C=CC4(C)C3(Cl)C(O)CC21C (stereo not given) 12.6 µM [inhibitor, partial curve, poor fit]
CC(Nc1nc(-c2ccc3c(c2)NC(=O)CO3)cs1)c1ccccc1 (stereo not given) 44.7 µM [inhibitor, partial curve, poor fit]
Cc1ccc(CNC(=O)CCc2c(C)nn(-c3ccc(N4CCCC4)nn3)c2C)cc1 10 µM [inhibitor, single point]
O=C(c1ccco1)N1CCCC(Nc2ccc3c(c2)OCCO3)C1 (stereo not given) 28.2 µM [inhibitor, partial curve]
Cc1ccccc1NCC(=O)N/N=C\C=C\c1cccc([N+](=O)[O-])c1 50.1 µM [inhibitor, single point]
CCOc1ccccc1NC(=O)Cn1nc2c3cc(F)ccc3n(Cc3cccc(C)c3)cc-2c1=O 4.47 µM [inhibitor, full curve, poor fit]
C[C@H](NC(=O)c1nc[nH]c1C(=O)NCC(=O)OCc1ccccc1)C(=O)OC(C)(C)C 44.7 µM [inhibitor, single point]
O=C(COC(=O)c1ccccc1Oc1ccccc1)NCc1ccco1 25.1 µM [inhibitor, partial curve, poor fit]
O=c1/c(=C\c2ccc3c(c2)OCO3)sc2n1CCCN=2 35.5 µM [inhibitor, single point]
CC(C)n1nc(C(=O)Oc2cccc(Cl)c2Cl)c2ccccc2c1=O 25.1 µM [inhibitor, single point]
CC(C)(C)c1ccc(OCC(O)CSc2ncn[nH]2)cc1 (stereo not given) 31.6 µM [inhibitor, partial curve]
Nc1nnc(Cc2ccc(Cl)cc2Cl)s1 15.8 µM [inhibitor, partial curve]
Cc1ccc(C)c(N2CCN(C(=O)c3ccc4c(c3)c(C)c(C)n4C)CC2)c1 3.55 µM [inhibitor, partial curve]
Cc1ccc(C(=O)Nc2cccc(NC(=O)CN3CCCCC3)c2)cc1 15.8 µM [inhibitor, partial curve]
CC(C)CC(=O)O/N=C1\C(=O)N(Cc2ccc(Cl)cc2)c2ccc([N+](=O)[O-])cc21 35.5 µM [inhibitor, partial curve]
CCOC(=O)N1CCN([N+]([O-])=NOc2cc(O/N=[N+](\[O-])N(C)C)c([N+](=O)[O-])cc2[N+](=O)[O-])CC1 28.2 µM [inhibitor, partial curve]
Cc1nc2nc(SCC(=O)NCc3ccccc3)nn2c(C)c1Cc1ccccc1Cl 8.91 µM [inhibitor, full curve]
COc1ccc(-c2oc(NC(=O)CSc3ncn[nH]3)c(C#N)c2-c2ccc(OC)cc2)cc1 8.91 µM [inhibitor, partial curve]
Cc1ccsc1C(=O)N1CCc2ccccc2C1 28.2 µM [inhibitor, single point]
O=C(Nc1ncccc1Cl)C1COc2ccccc2O1 (stereo not given) 20 µM [inhibitor, partial curve]
O=C(NCCCn1ncc2ccccc21)c1cc(COc2c(F)cccc2F)on1 17.8 µM [inhibitor, partial curve]
CCN(CC)c1ccc(NC(=O)Nc2cccc(C(C)=O)c2)cc1 17.8 µM [inhibitor, partial curve]
Cc1ccc(N(CC(=O)N/N=C/c2cccs2)S(C)(=O)=O)cc1Cl 50.1 µM [inhibitor, single point]
CCS(=O)(=O)c1ccc(C(=O)Nc2cccc(Cl)c2)c(Cl)c1Cl 22.4 µM [inhibitor, partial curve]

Potency, inactive:
COc1ccc(C2/C=C\CN(C(=O)C3CCCC3)CC(=O)N2Cc2ccc(F)cc2)cc1 (stereo not given)
O=C(NCCCN1CCOCC1)c1ccc2c(c1)N(Cc1ccccc1)C(=O)c1ccccc1S2

Activity change, negative = displacement, inactive:
NC(=S)n1[nH]c(-c2ccc([N+](=O)[O-])cc2)c(N=Nc2ccc(Cl)cc2)c1=O -12.9%
Cc1cc(O)cc2c(=O)c3ccccc3sc12 -6.28%
O=C(NC(=S)NCc1ccncc1)c1ccccc1 -6.29%
O=C(O)c1ccccc1-c1ccccc1C(=O)NCCc1ccccc1 -2.83%
O=C(N/C=C/n1cnc2cc(C(F)(F)F)ccc21)c1ccccc1F -8.79%
COc1ccc(S(=O)(=O)NCc2ccco2)c2ccccc12 -20.3%
Cc1nn(Cc2ccc([N+](=O)[O-])cc2)c(=O)n1-c1cccc(Cl)c1 -13.5%
O=C(NNC(=O)c1ccccc1F)c1cccs1 56.1%
O=[N+]([O-])c1ccc(N2CCCC2)nc1N1CCCC1 6.35%
COc1ccc(/C=C/c2nc(C#N)c(NC3CCCCC3)o2)cc1OC 294%
Cc1ccc(-c2cc(=O)c3cc(F)ccc3[nH]2)cc1 -9.98%
CCc1cccc(C)c1Nc1c(-c2cccc(O)c2)nc2cnccn12 -0.458%
CC(C)COc1cccc(-c2cc(C(=O)Nc3ccon3)c3ccccc3n2)c1 -16.4%
CSc1ccc(S(=O)(=O)NCc2ccc(C)cc2)cc1 -22%
COc1ccc(-c2ccc(S(=O)(=O)n3nc(OC(=O)c4cccs4)cc3N)cc2)cc1 -23.4%
CCCN(Cc1cccs1)C(=O)Nc1ccccc1C -14.2%
COc1ccc(S(=O)(=O)NCCc2cn3ccsc3n2)cc1OC -3.84%
CCOc1ccccc1C1CC(=O)NC(C)=C1C(=O)OCc1ccc(C)cc1 (stereo not given) 2.21%
NC(C(=O)O)[C@H](O)C(=O)O (stereo not given in full) 13.6%
C=CCC1(O)C=CCC2C3C4C(OC(C)(C)C)C2C1C34 (stereo not given) -4.6% [at 15.3 µM]
COc1ccc(/C=N/NC(=O)c2ccoc2C)cc1OC 7.55%
COC(=O)c1ccc(COC(=O)CCc2nc(-c3ccccc3)c(-c3ccccc3)o2)cc1 86.1%
O=c1oc2ccccc2n1CCn1c2ccccc2c2nc3ccccc3nc21 -0.405%
